Reference: article PMC12136788
The list shows a part of the results.

B1: chr4:138171397:138171528:-|3pUTR|ENSG00000151012|msi1|FALSE|unique (ssRNA)
RNA: GGGAGUUCUACAGUCCGACGAUCAUUAUGGCAAAGAGGAGAGAAAGAAAUUUAUUUUACAUUGACAUUGCAUUGCUUCCCCUUAGAUACCAAUUUAGAUAACAAACACUCAUGCUUUAAUGGAUUAUACCCAGAGCACUUUGACAACAGAGGAUUGAGCAUCA
B2: chr3:152462637:152462738:+|3pUTR|ENSG00000152601|msi1|total|mutant (ssRNA)
RNA: GGGAGUUCUACAGUCCGACGAUCGAACAACAUUGUCUUUCUUUUCCCGCACAGAGUUAUGCAUUCAAAGAUGCAUACCCCGUCCGUUUCCUAUAUAUUCAUGCCAUCUUGAAAAGACAGACUAUGGUGUAACCAUGAUUCUAUCAACAGAGGAUUGAGCAUCA
B3: chr1:93361585:93361687:+|3pUTR|ENSG00000117505|unk|FALSE|unique (ssRNA)
RNA: GGGAGUUCUACAGUCCGACGAUCUUUAACUUGUAGUUAUAGUUUACUUAUUGUUUUUAGAAUUACUUUUACAUUUUCCCAACUAGAUGGCCUAGAGUCCAACAUUACCUUUUGAGAUGACAUUAUUGUCUCCAUAAUUGAGUGCAACAGAGGAUUGAGCAUCA
B4: chr19:1925605:1925706:+|3pUTR|ENSG00000227500|msi1|FALSE|unique (ssRNA)
RNA: GGGAGUUCUACAGUCCGACGAUCUUUGGACACCCCAGGCUGCCACCCCUCCCCACCCGUUCACCCCCAGGAUGCUGUUGCUGUAGGACGCCUGCUGCCCUGGAGCCCUCCCCAGGAUGUGAGCCAGUCCCCUCGCUGGUACGGCAACAGAGGAUUGAGCAUCA
B5: chr4:137519872:137519973:-|3pUTR|ENSG00000189184|unk|FALSE|unique (ssRNA)
RNA: GGGAGUUCUACAGUCCGACGAUCAACUAUUCAUUUUUAGCUUUUGUCUCCAGUGCAUGAUCUCAUAUUUUUGCUUUUAUUUUUAGUAUAAGAACAUUUAUAAAAUCAUAUUUUUGUUACUGCAAUUGUUUUAUUUGUUGUGUGCAACAGAGGAUUGAGCAUCA
B6: chr2:9585027:9585123:-|3pUTR|ENSG00000134308|msi1_unk|total|mutant (ssRNA)
RNA: GGGAGUUCUACAGUCCGACGAUCGGAAAACUUCAUUCCUUGAUUUGUGUUUGUCUUGGCCUUCCUGGUGUGCAGUACUGCUGCCGAAAAGUAUUAACCGCUUCAUUUCAUAUAAACAUAAGUAACUCCCAAACACUUAUGCCGCAACAGAGGAUUGAGCAUCA
B7: chrX:131089436:131089558:+|3pUTR|ENSG00000147256|unk|FALSE|unique (ssRNA)
RNA: GGGAGUUCUACAGUCCGACGAUCGGGAAACCUCAAGUGUAGGUCUAAUUAGUGUUUCUGGGAUCCAAAGUUAGAGGAAAAUUUAGAUUUUAUUGCCUGGAUCUGCUUUAAAGACAAUUGGUGUUUACACCCUCUUGUCAGCAACAACAGAGGAUUGAGCAUCA
B8: chr4:140550230:140550341:+|CDS|ENSG00000179387|unk|total|mutant (ssRNA)
RNA: GGGAGUUCUACAGUCCGACGAUCGAAUUUGACAAGUUUUGGUUUGAAGAAGAACCAGAAAGCAUUAUGUAUUUCAAUUUGUACCGAGAGAAGUUUCAUGAAAAGAUUAAAGGACUUUUACUGGAUUGUAAUGCCGCACUUACUCAACAGAGGAUUGAGCAUCA
B9: chr6:136278143:136278257:-|CDS|ENSG00000029363|unk|FALSE|unique (ssRNA)
RNA: GGGAGUUCUACAGUCCGACGAUCACAUCCGGUGAUAUUUGGCCUGGCCUUUCAGCUUAUGAUAAUAGUCCUAGAUCACCCCAUAGUCCUUCACCUAUUGCUACACCACCUAGUCAGAGUUCAUCUUGCUCUGAUGCUCCCAUGCAACAGAGGAUUGAGCAUCA
B10: chr12:24812190:24812291:-|3pUTR|ENSG00000060982|msi1|total|mutant (ssRNA)
RNA: GGGAGUUCUACAGUCCGACGAUCUUUACUAUCUCCUAUCCUGACCGGUGGAAGGUUUACUGAAUUGGAAAUUGGUUGACUAUCCGUUUUUAACUAAAAUGUGCAAUAACACAUUGCAGUUUCCUCAAACCCGUUUCCUAUGAUCAACAGAGGAUUGAGCAUCA
B11: chr1:40073325:40073426:-|3pUTR|ENSG00000131238|msi1|total|mutant (ssRNA)
RNA: GGGAGUUCUACAGUCCGACGAUCGAGGGAAGCCGCACCCAAAUUAAGUUGCUUAAGAGAGGAAAUGUACAUCUUGUAUAACUCCGGGAGCGAAGAAAAUGCCGGCGCGAAAGUGAAAAGUGAGGCAGCCCGUUCUUCCUAUUCCAACAGAGGAUUGAGCAUCA
B12: ENSG00000124766:be:win_1551|3pUTR|ENSG00000124766|bound_else_gene|NA|bound_elsewhere_windowed (ssRNA)
RNA: GGGAGUUCUACAGUCCGACGAUCCAGGGCUGGCUUCGCCCGCGUUCUCGUCGUCGGAUCAAGGAGCGCGGCGGCGUUUUGGACCCGCGCUCCCAUCCCCCACCUUCCCGGGCCGGGGACCCACUCUGCCCAGCCGGAGGGACGCAACAGAGGAUUGAGCAUCA
B13: chr1:92323927:92324037:+|CDS|ENSG00000122484|unk|FALSE|unique (ssRNA)
RNA: GGGAGUUCUACAGUCCGACGAUCAGUGCAGAGCAUUUUAAGAGAAAAUUUGCCAAAUCAAACCAAGUGUCUAGGUCAGUGUCUAGUUCAGUGCAGGUGUGUCCUGAAGUUGGAAAGAGAAACUUACUUAAAGUUUUGAAGGAGCAACAGAGGAUUGAGCAUCA
B14: chr7:99705035:99705499:-|three_prime_utr|ENSG00000160870|control|control|control (ssRNA)
RNA: GGGAGUUCUACAGUCCGACGAUCGUUUGCUCUUUAAGAAAGCUGUGCCCCAGAACACCAGAGACCUCAAAUUACUUUACAAAUAGAACCCUGAAAUGAAGACGGGCUUCAUCCAAUGUGCUGCAUAAAUAAUCAGGGAUUCUGCAACAGAGGAUUGAGCAUCA
B15: chr3:49657245:49657349:+|CDS|ENSG00000164061|unk|total|mutant (ssRNA)
RNA: GGGAGUUCUACAGUCCGACGAUCCAGCCGCCGUGGCAUCAAGAAGCGGCACUCCAUGCCACGCCUGCGGGAUGCCUGUGAGCCCGAGUCUGGGACUGAGCCCUGUGUGGUCAGGAGGAUUGCCGACAGCAGCGUGCAGACAGACAACAGAGGAUUGAGCAUCA
B16: chr4:57023444:57023561:+|CDS|ENSG00000047315|unk|total|mutant (ssRNA)
RNA: GGGAGUUCUACAGUCCGACGAUCGAAUUGGAGAGCACCAACCGACGCUAUACCAAGAGAGACUGCCGCACUUUUCUCAGAACCCGCGAGACGGGCAUUGUGGAUCAGGUUAUGGUAACUCUCAAUCAGGAAGGAUAUAAAUUUCAACAGAGGAUUGAGCAUCA
B17: chr5:136976780:136976881:-|3pUTR|ENSG00000152377|msi1|total|mutant (ssRNA)
RNA: GGGAGUUCUACAGUCCGACGAUCCUUAAAUCCGCAUGUUCCAAUCCAGUCGGCAUUGCCUGAAUACAGCCGCAUCAUACCUACCGUUGGUCUCCGAUAAGAAAUGAACUACUUGAUACCGCAAAGUCCUUUGGCUUCGUAAAUCAACAGAGGAUUGAGCAUCA
B18: chr4:174259701:174259819:-|CDS|ENSG00000164117|unk|total|mutant (ssRNA)
RNA: GGGAGUUCUACAGUCCGACGAUCAAAUCCACUUGGGGUCACUGUUCCAUAUACAAUAAGAACCCACCUUCCGGAUUUUCUUUCCGAAAAUUGUAUAUGCAGCUGGAUGAAGGCAGCCUCACCUUUAAUGCCAACCCAGAUGAGCAACAGAGGAUUGAGCAUCA
B19: chr12:56162362:56162467:-|3pUTR|ENSG00000139613|unk|FALSE|unique (ssRNA)
RNA: GGGAGUUCUACAGUCCGACGAUCGGUUCCUCCCACCAGGCCCUUUGUUCCUCAUGUCCCCAUGUUUCUCUCCCUCUGCGUCUUAGCACCUUUCUUCUGUUCAAAGUUUUCUGUAAAUUUUCUCUUUUUUUCUUUCUUUCUUUUCAACAGAGGAUUGAGCAUCA
B20: chr2:216675367:216675485:-|3pUTR|ENSG00000115461|msi1|total|mutant (ssRNA)
RNA: GGGAGUUCUACAGUCCGACGAUCGCCAGGCAGAGGCCAGCCCUCCGUGGUGCACACAGCACGCGCCUCAGUCCAUCCCAUUUCCGUCUUUAAACCCUCAGGAAGUCACAGUCUCCGGACACCACACCACAUGAGCCCAACAGGCAACAGAGGAUUGAGCAUCA
B21: ENSG00000107863:be:win_3551|CDS|ENSG00000107863|bound_else_gene|NA|bound_elsewhere_windowed (ssRNA)
RNA: GGGAGUUCUACAGUCCGACGAUCGAGUUCCUGGAAAUAAUGCAGCCAUCUCAAGUAUGCAAGAAGAACUCAACAAGGGAAUGGCUGAUAUUGAUAUACAAGAUGAUAAAUGGCGAGAUUUGAAUGUGAUAAGCAGUUUACUAACAACAGAGGAUUGAGCAUCA
B22: chr10:73251842:73251943:-|CDS|ENSG00000182180|msi1|total|mutant (ssRNA)
RNA: GGGAGUUCUACAGUCCGACGAUCUCGGCCGUUCUACCGCAUUGUGGCUGCUCACAACAAGUGUCCCAGGGAUGGCCGUUUCGCCGAGCAGCUGGGCUCCUAUGAUCCAUUGCCCAACAGUCAUGGAGAAAAACUCGUUGCCCUCAACAGAGGAUUGAGCAUCA

Each binder was assayed against T1, UNK ZnF1-6 (called full-length) (human, UniProt Q9C0B0 30-357) (assay: nsRBNS (natural sequence RNA bind-n-seq); RBNS binding buffer (assumed for nsRBNS): 25 mM Tris pH 7.5, 150 mM KCl, 3 mM MgCl2, 0.01% Triton X-100, 500 ug/ml BSA, 20 U/ml SUPERase-In, 4 C; UNK is unkempt and MSI1 is Musashi-1; names of the RNAs are library labels; protein concentration not given here; high values mean tight binding).
T1 sequence: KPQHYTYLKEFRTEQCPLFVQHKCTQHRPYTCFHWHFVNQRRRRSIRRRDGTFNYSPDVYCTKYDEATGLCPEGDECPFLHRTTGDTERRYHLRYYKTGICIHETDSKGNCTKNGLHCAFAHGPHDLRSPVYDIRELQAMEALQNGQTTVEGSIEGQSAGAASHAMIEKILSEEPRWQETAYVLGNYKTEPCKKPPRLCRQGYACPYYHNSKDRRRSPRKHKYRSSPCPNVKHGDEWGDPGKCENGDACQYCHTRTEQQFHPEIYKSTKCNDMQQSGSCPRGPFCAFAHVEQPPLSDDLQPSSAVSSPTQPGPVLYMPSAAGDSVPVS

Binder	binding signal [enrichment R]
B1	73.9
B2	0.302
B3	152
B4	1.65
B5	5.84
B6	0.375
B7	5.04
B8	0.619
B9	1.21
B10	0.274
B11	0.464
B12	1.07
B13	0.468
B14	0.659
B15	0.785
B16	0.541
B17	0.481
B18	0.452
B19	1.8
B20	0.85
B21	0.37
B22	0.497
